# In PubChem BioAssay AID1457 (National Center for Advancing Translational Sciences (NCATS), 2008):
# In all, about 210,000 compounds went through this assay and about 730 (0.35%) were called active. The inconclusive results got no clear call from the source; some entries with a clear call stand among them for comparison. Calls come from the whole dose curve; as a rule, active = well fitted inhibition curve with a large enough effect; inconclusive = small, poorly fitted or top-dose-only effect; inactive = no such curve, though single readings can be large or run the other way. Potencies beside an inconclusive call are fits to weak or partial responses and may not hold up.
# Experiment: qHTS Assay for Identifying the Cell-Membrane Permeable IMPase Inhibitors: Potentiation with Lithium; note: nearly all actives have a fitted effect of over 50% in size;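 for activity, negative = IMPase inhibition: plate controls were basal vehicle for no effect and high inhibitor control for full effect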
# Conditions: CHO-M1 cells, IP1 TR-FRET (IP-One), carbachol + lithium; series mostly up to 59.4 µM; activity, negative = IMPase inhibition: at the top concentration
# Procedure, shortened: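 CHO cells stably expressing M1 receptor (2000/well) were cultured 16–30 h, then exposed to compounds with a small lithium addition for 30 min at 37C. IP1 was measured by TR-FRET competition; AC50 from Hill fits.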
# Potency is the fitted concentration of half-maximal effect.
Structure (SMILES),"activity, negative = IMPase inhibition",Potency
O=C(O)C=C1CCN(c2ncc(C(F)(F)F)cc2Cl)CC1,inactive: -5.76% [at 38.3 µM],–
Fc1cnc(N2CCc3ccccc32)nc1N1CCc2ccccc21,–,"inconclusive: 3.16 µM [inhibitor, full curve, poor fit]"
CCN(CC)Cc1c(O)c(Cl)cc2c(C)c(C)c(=O)oc12,–,"inconclusive: 31.6 µM [inhibitor, partial curve, poor fit]"
Cc1noc(C)c1C(=O)N1CCC2(CCCN(c3ncccn3)C2)CC1,inactive: -0.158%,–
O=C(CCN1C(=O)c2ccccc2C1=O)Nc1ccc(-c2nc3ccccc3o2)cc1,–,"inconclusive: 4.47 µM [inhibitor, partial curve]"
CCNc1ncc2nc(-c3ccccc3)c(=O)n(Cc3ccc(F)cc3)c2n1,–,"inconclusive: 28.2 µM [inhibitor, single point]"
Cc1ccccc1-c1cncnc1Nc1ccccc1,inactive: -1.65%,–
COc1ccc2nc(NC(=O)C3CCCO3)sc2c1 (stereo unspecified),inactive: 7.74%,–
COc1ccc(NC(=O)COC(=O)c2cc(SC)ccc2Cl)c(OC)c1,–,"inconclusive: 28.2 µM [inhibitor, single point]"
c1ccc(Cn2cc(CN3CCCO3)c(-c3ccc4c(c3)OCO4)n2)cc1,inactive: 3.2%,–
O=C(NCCN1CCOCC1)C1CCN(c2ncnc3c2sc2cccc(F)c23)CC1,–,"inconclusive: 28.2 µM [inhibitor, single point]"
O=C(O)CSc1ccc2ccccc2n1,–,active: 7.08 µM
Cc1cc(C)c2nc(SCC(=O)NCC3CCCO3)c(C#N)cc2c1 (stereo unspecified),–,"inconclusive: 28.2 µM [inhibitor, single point]"
Cn1cc(S(=O)(=O)CC(=O)N2CCc3ccccc32)c2ccccc21,–,"inconclusive: 14.1 µM [inhibitor, single point]"
Cc1ccc(NC(=O)CSC2=C(C#N)C(c3ccc4c(c3)OCO4)CC(=O)N2)cc1C (stereo unspecified),inactive: 7.6%,–
COc1ccc(CNC(=O)CSc2cc(=O)n(C)c3ccccc23)cc1,inactive: -14%,–
O=C(CN1CCCC1)Nc1ccc(NC(=O)Nc2ccccc2)cc1,inactive: -2.91% [at 38.3 µM],–
COc1ccc(-c2noc(CN3C(=O)c4ccccc4C3=O)n2)cc1,inactive: 24.3% [at 38.3 µM],–
COc1cc(-n2c(=O)c3ccccc3n(CC(=O)c3ccc(Br)cc3)c2=O)cc(OC)c1OC,–,active: 22.4 µM
Cc1ccc(CC(Cc2nc3ccccc3[nH]2)c2nc3ccccc3[nH]2)cc1 (stereo unspecified),inactive: -1.94%,–
CCn1c(=S)[nH]c2scc(-c3cccs3)c2c1=O,–,"inconclusive: 10 µM [inhibitor, single point]"
Cc1c(C)c2cc(Cl)c(O)c(CN3CCN(C)CC3)c2oc1=O,–,"inconclusive: 12.6 µM [inhibitor, partial curve]"
CC(C)(C)C1CCc2onc(C(=O)NC3CCCC3)c2C1 (stereo unspecified),inactive: 7.03% [at 38.3 µM],–
CCOc1ccc(NC(=O)c2sc(NC(C)=O)c(C(=O)OC)c2C)cc1,–,"inconclusive: 25.1 µM [inhibitor, single point]"
NC(=O)N/N=C1\CC[C@H](O)C[C@@H]1CC(=O)O,inactive: -1.5%,–
Cc1sccc1C1C(C#N)=C(N)SC(N)=C1C#N,–,"inconclusive: 10 µM [inhibitor, single point]"

Structure (SMILES),"activity, negative = IMPase inhibition",Potency
O=C(CSc1ccc2nnc(-c3ccc(Cl)cc3)n2n1)N1CCCC1,–,"inconclusive: 28.2 µM [inhibitor, single point]"
NC(=O)CSc1nc2ccccc2n1-c1ccccc1,inactive: 3.37%,–
COc1ccc(-n2nnnc2-c2nc3ccccc3s2)cc1,–,"inconclusive: 12.6 µM [inhibitor, single point]"
Brc1cc(Br)c2nc(-c3ccc(N4CCOCC4)cc3)ccc2c1,–,"inconclusive: 10 µM [inhibitor, partial curve]"
COc1ccc(/C=C/C(=O)c2cc3cccc(OC)c3oc2=O)cc1,–,"inconclusive: 2.82 µM [inhibitor, single point]"
COc1cccc(CNC(=O)C2CCC(CNc3nc(=S)[nH]c4ccccc34)CC2)c1 (stereo unspecified),–,active: 10 µM
O=C(COC(=O)C1CC(=O)N(Cc2ccccc2)C1)c1ccc(F)cc1 (stereo unspecified),–,"inconclusive: 2.24 µM [inhibitor, full curve, poor fit]"
COc1ccc(C)cc1NC(=O)c1nnn(CCc2ccccc2)c1N,–,"inconclusive: 12.6 µM [inhibitor, single point]"
Cc1nc(NC(=S)NC(=O)COc2ccccc2Cl)ccc1Br,–,"inconclusive: 22.4 µM [inhibitor, single point]"
Cc1csc(SCC(=O)NC(=O)NC(C)C)n1,–,"inconclusive: 28.2 µM [inhibitor, single point]"
CCOC(=O)N1CC=C2C(C#N)=C(N)C(C#N)(C#N)[C@H](c3cccs3)C2C1 (stereo partly specified),inactive: 9.43%,–
CC[N+](CC)(CCO)CCCN1C(=O)C2CC=C(Cl)CC2C1=O (stereo unspecified),inactive: 12.5% [at 38.3 µM],–
Cc1ccc(CNC(=O)c2ccc(N(C)C)cc2)cc1,–,"inconclusive: 28.2 µM [inhibitor, single point]"
CCCCCNC(=O)CCCCn1c(=O)[nH]c2cc(OCC)c(OCC)cc2c1=O,inactive: -2.35% [at 38.3 µM],–
COc1ccc(C2C(C(=O)N3CCOCC3)c3ccccc3C(=O)N2c2ccc(OC)cc2)cc1 (stereo unspecified),inactive: 3.76% [at 38.3 µM],–
COc1cc(O)c(C(=O)O)c(O)c1,inactive: -0.798%,–
CCCCN1C(=O)/C(=C2/Sc3ccccc3N2C)S/C1=N\c1ncn[nH]1,–,"inconclusive: 28.2 µM [inhibitor, single point]"
CC(C)CC(=O)NC(=S)Nc1nc(-c2ccccc2)cs1,–,"inconclusive: 28.2 µM [inhibitor, single point]"
CCC(C)NC(=O)Cc1c(OC)ccc2cc(Br)ccc12 (stereo unspecified),–,"inconclusive: 11.2 µM [inhibitor, single point]"
N#Cc1cccc(NC(=O)N2CCC3(CC2)CCN(C(=O)c2csnn2)CC3)c1,–,active: 11.2 µM
C[C@H](CCC(=O)NCC(=O)O)C1CC[C@H]2[C@H]3C(C[C@H](O)[C@]12C)[C@@]1(C)CC[C@@H](O)C[C@H]1C[C@H]3O (stereo partly specified),inactive: -4.36%,–
NS(=O)(=O)c1cc(C(=O)O)c(O)c2ccccc12,inactive: -3.95%,–
CCCCN(C(=O)CSc1nnc(Nc2ccccc2)s1)c1c(N)n(CCC)c(=O)[nH]c1=O,–,"inconclusive: 11.2 µM [inhibitor, partial curve]"
CCOC(=O)c1oc2ccc(CNC(C)(C)C)c(Cl)c2c1C,inactive: 24%,–
O=C(O)c1ccc(N/N=C/C=C/c2ccccc2[N+](=O)[O-])cc1,–,"inconclusive: 4.47 µM [inhibitor, single point]"
O=C(Nc1ncccc1Cl)c1ccc2c(c1)OCCO2,–,"inconclusive: 3.55 µM [inhibitor, full curve, poor fit]"

Structure (SMILES),"activity, negative = IMPase inhibition",Potency
O=C(NNc1cc(N2CCCC2)nc(N2CCCC2)n1)c1ccc([N+](=O)[O-])cc1,inactive: 20.9%,–
Cc1ccc(S(=O)(=O)N2CCCC(c3nc(-c4ccc(C)o4)no3)C2)cc1 (stereo unspecified),inactive: 28% [at 38.3 µM],–
CCCCC(=O)N/N=C(C)/C=C/c1ccccc1F,–,"inconclusive: 3.55 µM [inhibitor, full curve]"
Cc1c(C(=O)Nc2ccc3oc(-c4cccnc4)nc3c2)oc2ccccc12,–,"inconclusive: 20 µM [inhibitor, single point]"
Cc1nc(NCCN2CCOCC2)c2nnn(Cc3c(F)cccc3Cl)c2n1,–,"inconclusive: 31.6 µM [inhibitor, single point]"
COc1ccc(C(=O)CSc2nnc(-c3ccccc3)o2)cc1,–,"inconclusive: 28.2 µM [inhibitor, single point]"
Cc1ccc(CNC(=O)c2cc3c(s2)CN(Cc2ccccc2)C3)cc1,–,"inconclusive: 28.2 µM [inhibitor, single point]"
Clc1ccccc1Nc1ncnc2c1nnn2Cc1ccccc1,inactive: 10.4% [at 38.3 µM],–
CCc1c(C)c2cc(Cl)c(O)c(CN(C)C)c2oc1=O,–,"inconclusive: 11.2 µM [inhibitor, single point]"
COc1ccccc1OCC(=O)Nc1nnc(-c2ccco2)s1,–,"inconclusive: 28.2 µM [inhibitor, single point]"
CCCCN(C(=O)NC(=O)Nc1cc(C)ccc1C)S(C)(=O)=O,inactive: 0.309% [at 38.3 µM],–
NS(=O)(=O)c1ccc(CNC(=O)c2cc(-c3ccccn3)nc3ccc(Cl)cc23)cc1,–,"inconclusive: 28.2 µM [inhibitor, single point]"
Cc1ccc(S(=O)(=O)N2CCC(C(=O)Nc3nnc(-c4ccc(F)cc4)s3)CC2)cc1,–,"inconclusive: 28.2 µM [inhibitor, single point]"
O=C(Nc1cc2c(=O)n(-c3ccc(Oc4ccccc4)cc3)ccc2oc1=O)c1ccccc1,–,"inconclusive: 28.2 µM [inhibitor, single point]"
ClCc1nnc(-c2ccccc2)o1,inactive: -5.16%,–
CCc1cc(C(=O)Cc2cnn(-c3ccccc3)c2)c(O)cc1O,–,"inconclusive: 14.1 µM [inhibitor, single point]"
COc1ccc(-c2nc3cnc(Oc4cccc(Cl)c4)nc3n(C3CC3)c2=O)cc1,–,"inconclusive: 22.4 µM [inhibitor, single point]"
Cc1ccc(S(=O)(=O)N2CCN(C(=O)CSc3nc4ccccc4c(=O)[nH]3)CC2)cc1,–,"inconclusive: 28.2 µM [inhibitor, single point]"
Cc1ccc2nsnc2c1S(=O)(=O)NC1CC1,inactive: 4.13%,–
CCC(C)NC(=O)CCS(=O)(=O)c1ccc(Br)s1 (stereo unspecified),inactive: 6.04% [at 38.3 µM],–
CNc1nc2[nH]c(=O)c3c(c2s1)OC(N)=C(C#N)C3c1cccc(F)c1 (stereo unspecified),–,"inconclusive: 22.4 µM [inhibitor, single point]"
Clc1ccccc1Sc1cnc2ccccc2n1,–,"inconclusive: 10 µM [inhibitor, single point]"
Nc1nc(Cc2ccccc2)nc(Cc2ccccc2)c1-c1ccccc1,inactive: -1.13%,–
COc1ccc(C)cc1NC(=O)N1CCCc2ccccc21,–,active: 25.1 µM
